In PubChem BioAssay AID1347055 (National Center for Advancing Translational Sciences (NCATS), 2019):
In all, about 54,000 compounds went through this assay and about 120 (0.22%) were called active. The inconclusive results got no clear call from the source; some entries with a clear call stand among them for comparison. Calls follow the shape of the dose curve; as a rule, active = well fitted inhibition curve with a large enough effect; inconclusive = small, poorly fitted or top-dose-only effect, or effect the other way; inactive = flat fitted curve, though single readings scatter. Potencies of inconclusive entries are left out as doubtful fits.

target: Fumarate hydratase, mitochondrial (Homo sapiens) (UniProt P07954); assay: Identification of activators of human fumarate hydratase by quantitative high-throughput screening; conditions: FH coupled MDH/diaphorase resazurin fluorescence, 15 min; activity change, negative = inhibition: at 79.9 µM (top of the series); also: the screen sought activators but most active calls are inhibition curves; nearly all actives have a fitted effect of over 45% in size
Chain of UniProt P07954 (P07954 whole entry, looked up): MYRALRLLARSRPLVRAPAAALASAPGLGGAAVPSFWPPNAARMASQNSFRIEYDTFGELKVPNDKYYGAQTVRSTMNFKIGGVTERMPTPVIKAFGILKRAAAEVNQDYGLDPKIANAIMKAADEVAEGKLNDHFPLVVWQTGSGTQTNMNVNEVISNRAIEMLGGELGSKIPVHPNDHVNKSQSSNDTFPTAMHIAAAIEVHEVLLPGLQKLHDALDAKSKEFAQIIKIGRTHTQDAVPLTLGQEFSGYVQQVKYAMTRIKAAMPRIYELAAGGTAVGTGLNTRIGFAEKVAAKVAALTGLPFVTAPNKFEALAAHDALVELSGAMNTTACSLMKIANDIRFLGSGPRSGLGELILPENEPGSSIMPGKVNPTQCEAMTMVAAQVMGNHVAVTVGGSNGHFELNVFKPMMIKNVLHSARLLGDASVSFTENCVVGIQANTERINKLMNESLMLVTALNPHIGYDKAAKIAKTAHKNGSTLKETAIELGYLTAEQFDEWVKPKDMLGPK
% is scaled to controls: 0 for no effect and ±100 for the full control effect; potency is read from the fitted curve at half-maximal effect; tags tell the direction and shape of the fitted curve.

SMILES	activity change, negative = inhibition	Potency
COc1ccc(N(Cc2cccs2)C(=O)COc2ccc([N+](=O)[O-])cc2)cc1	inactive: -14.1%	
CCOc1ccc(C(=O)Nc2cc(-c3ccccc3)no2)cc1	inactive: -2.07%	
Cc1ccc(CNC(=O)c2cnn3c(C)c(Cc4c(F)cccc4Cl)c(C)nc23)cc1		inconclusive [inhibitor, partial curve, poor fit]
Cc1cc(F)c(C(=O)Nc2cccc(-c3nncn3C(C)C)n2)cc1-n1cnc(C2CC2)c1	inactive: -0.686% [at 53.3 µM]	
O=C(c1cc(-c2ccc(Cl)cc2)on1)N(Cc1ccc(F)cc1)Cc1ccco1	inactive: -16.9%	
Cc1ccc(-n2c(SCc3nc(-c4ccc(Cl)cc4)no3)nnc2-c2ccncc2)cc1		inconclusive [inhibitor, partial curve]
COc1ccc(C(=O)c2sc(Nc3cc(Cl)ccc3C)nc2N)cc1OC		inconclusive [inhibitor, single point]
Cc1cc(C)c2sc(N3CCN(C(=O)C4CC4)CC3)nc2c1	inactive: -2.93%	
O=C(Nc1cccc(Br)c1)c1cc(-c2ccc3c(c2)OCCO3)on1	inactive: -7.18%	
Cc1[nH]nc2ccc(-c3cncc(OC[C@@H](N)Cc4ccccc4)c3)cc12		inconclusive [activator, single point]
O=C(O)C(Cc1cc(I)c(O)c(I)c1)c1ccccc1 (configuration not stated)	inactive: -10.8% [at 53.3 µM]	
Cc1cccc(Cn2cccc2CNS(=O)(=O)c2ccc(C)c(C)c2)c1		inconclusive [inhibitor, partial curve, poor fit]
COc1ccccc1N=c1scc(-c2ccc(S(=O)(=O)N3CCCC3)cc2)n1C	inactive: -22.9%	
COc1cc(C2NC(=O)c3c(sc4c3CCN(C)C4)N2)ccc1OC(=O)c1ccccc1 (configuration not stated)		inconclusive [inhibitor, partial curve]
CCOC(=O)c1c(C)[nH]c(C)c1S(=O)(=O)N1CCC(C(=O)Nc2ccc(C)c(Cl)c2)CC1		inconclusive [inhibitor, single point]
C=CCN1CCc2cc(O)c(O)cc2C(c2ccccc2)C1 (configuration not stated)		inconclusive [inhibitor, partial curve, poor fit]
CCc1ccccc1NC(=O)c1cc2c(Cl)nc3ccccc3c2s1	inactive: -17.8%	
CCOC(=O)c1cc(-c2ccccc2)n(-c2cccc(C(=O)N(C)c3ccc(C)cc3)c2)c1C		inconclusive [inhibitor, partial curve]
Fc1ccc(N2CCN(Cc3cccn3-c3nnc(N4CCN(C5CCCCC5)CC4)s3)CC2)cc1		inconclusive [inhibitor, partial curve, poor fit]
CCCCOc1ccccc1C(=O)Nc1onc2c1CCCC2	inactive: -35.3%	
CCOc1cc(C2Sc3ccccc3NC3=C2C(=O)c2ccccc23)ccc1O (configuration not stated)		inconclusive [inhibitor, single point]

SMILES	activity change, negative = inhibition	Potency
COC(=O)c1ccc(C2c3c(-c4ccc(Br)cc4)n[nH]c3C(=O)N2c2ccc(Cl)cc2)cc1 (configuration not stated)		inconclusive [inhibitor, partial curve, poor fit]
Cc1ccc(-n2ncc(C(=O)NCc3ccc4c(c3)OCO4)c2C2CCN(C(=O)OC(C)(C)C)CC2)cc1C		inconclusive [inhibitor, partial curve, poor fit]
CC(=O)O[C@H]1CC[C@@]2(CI)C(=CC[C@@H]3[C@@H]2CC[C@]2(C)[C@@H]([C@H](C)CCCC(C)C)CC[C@@H]32)C1	inactive: 10.3% [at 13.5 µM]	
COc1ccc(N2C(=O)C(CC(=O)Nc3ccc(Cl)cc3)N(Cc3ccc4c(c3)OCO4)C2=O)cc1 (configuration not stated)		inconclusive [inhibitor, partial curve, poor fit]
COc1ccc(NC(=O)CCc2nc3cccnc3n2-c2ccccc2)c(OC)c1	inactive: -6.14%	
Fc1ccc(F)c(Nc2c3c(nc4ccc(Cl)cc24)CCC3)c1		inconclusive [inhibitor, partial curve, poor fit]
COc1cccc2sc(N(Cc3cccnc3)C(=O)C3CCCCC3)nc12	inconclusive: -57.2% [inhibitor]	
O=C(Nc1cccc(Cl)c1)C(Cc1ccccc1)n1cccc1 (configuration not stated)		inconclusive [inhibitor, partial curve, poor fit]
O=C(CNC(=O)c1ccccc1Cl)OCc1cc(=O)n2nc(C3CC3)sc2n1		inconclusive [activator, partial curve]
COc1cc2nc(N3CCCN(C)CC3)nc(NC3CCN(Cc4ccccc4)CC3)c2cc1OC		inconclusive [inhibitor, single point]
Cc1c(-c2ccc(Cl)cc2)c(=O)oc2c(CN3CCN(C)CC3)c(O)ccc12	inactive: -10.4%	
CCOc1ccc(CCNC(=O)CCCc2nnc3n(CCCOC)c(=O)c4sccc4n23)cc1	inactive: -0.327%	
Cc1c(C(=O)N2CCCCCC2)c(S(=O)(=O)Nc2ccc(OC(F)(F)F)cc2)c(C)n1C		inconclusive [inhibitor, partial curve, poor fit]
CC1CC(O)CC(C)(C)C1(O)CCO (configuration not stated)	inactive: 3.48%	
COc1cc2c(cc1OC)C(COc1ccccc1OC)N(C(=O)c1ccc(S(=O)(=O)N3CCCC3)cc1)CC2 (configuration not stated)		inconclusive [inhibitor, partial curve, poor fit]
CCn1c(CN2CCCCC2)nc2cc(NC(=O)COc3cc(C)ccc3C(C)C)ccc21		inconclusive [inhibitor, partial curve, poor fit]
O=C(C1CCCCC1)N(Cc1cccnc1)c1nc2c(F)cccc2s1		inconclusive [inhibitor, single point]
CN(C)CCCCCCNC(=O)c1cccc(-c2cc(O)c3ncccc3c2)c1	inactive: 19.7%	
CC(C)(O)CC(=O)NCCn1ccc2ncnc(Nc3ccc(Oc4cccc(C(F)(F)F)c4)c(Cl)c3)c21		inconclusive [inhibitor, single point]
COc1cccc(-c2nn(C)c3sc(C(=O)NCc4ccc(C)cc4)cc23)c1		inconclusive [inhibitor, single point]
CC(=O)N1CCCc2cc(S(=O)(=O)N3CCC(C(=O)NCc4ccccc4Cl)CC3)ccc21		inconclusive [inhibitor, partial curve, poor fit]

SMILES	activity change, negative = inhibition	Potency
CCC1CN(C(=O)N2CCC(C(=O)NCCCc3ccccc3)CC2)c2ccccc2O1 (configuration not stated)		inconclusive [inhibitor, partial curve, poor fit]
CCc1nc2ccccc2n1CCCCOc1ccc(Cl)cc1		inconclusive [inhibitor, partial curve, poor fit]
CCCCN(CCCC)S(=O)(=O)c1ccc(C(=O)Nc2sc3c(c2C(N)=O)CCN(CC)C3)cc1	inactive: -3.89%	
CC(C)c1ccc(C(=O)Nc2ccc(-c3nc4ccccc4s3)c(Cl)c2)cc1	inactive: -5.56%	
COc1cccc(NS(=O)(=O)c2ccc3[nH]cc(C(=O)NC4CCCCC4)c(=O)c3c2)c1		inconclusive [inhibitor, single point]
O=S(=O)(NCc1ccccc1)c1ccc2[nH]c3c(c2c1)CCCCC3		inconclusive [inhibitor, single point]
O=[N+]([O-])c1ccc(O)c2ncccc12		inconclusive [inhibitor, single point]
CN(C(=O)Nc1cn(C)c(=O)c2ccccc12)c1ccccc1		active: 35.5 µM [activator]
CC1(C)CC[C@]2(C(=O)O)CC[C@]3(C)C(=CCC4[C@@]5(C)C[C@@H](O)[C@H](O)[C@](C)(CO)C5CC[C@]43C)[C@@H]2[C@@H]1O (some centres not stated)	inactive: 9.38% [at 53.3 µM]	
COc1cc(C(=O)Nc2ccc(-c3cc(C(F)(F)F)nn3-c3ccccc3)cc2)cc(OC)c1OC		inconclusive [inhibitor, partial curve, poor fit]
COc1cc(NC(=O)CSc2nc3nc(C)c(Cc4ccccc4)c(C)n3n2)cc(OC)c1		inconclusive [inhibitor, partial curve, poor fit]
Cc1ccc(Cl)cc1NC(=O)Cn1c(=O)n(CCC(=O)N2CCc3ccccc3C2)c(=O)c2ccccc21		inconclusive [inhibitor, partial curve, poor fit]
CN(C[C@@H]1COCCO1)S(=O)(=O)Nc1ccc2ccc3ncc(-c4cnn(C)c4)cc3c(=O)c2c1		inconclusive [inhibitor, single point]
CCOc1ccc(NC(=O)Cn2cc(C(=O)c3ccc(C)c(C)c3)c(=O)c3cc(F)ccc32)cc1		inconclusive [inhibitor, single point]
CC(C)NC(=O)c1cc2c(Cl)nc3ccccc3c2s1		inconclusive [inhibitor, single point]
CCOC(=O)C1CCCN(C(=O)c2cc3c(=O)n(C)c4ccccc4c3s2)C1 (configuration not stated)		inconclusive [inhibitor, full curve, poor fit]
Cc1cc(S(=O)(=O)n2ccnc2C(C)C)cc([N+](=O)[O-])c1C		inconclusive [activator, single point]
CCOC(=O)c1[nH]c2ccccc2c1NC(=O)c1ccccc1OC		inconclusive [inhibitor, partial curve, poor fit]
CN(c1ccccc1)C(CNS(=O)(=O)c1ccccc1)c1ccccc1 (configuration not stated)		inconclusive [inhibitor, partial curve, poor fit]
COc1ccc2c(c1)c(=O)c(C(=O)c1ccc(C)cc1)cn2Cc1ccccc1F		inconclusive [inhibitor, single point]
